The experiment deals with Myzus persicae exhibiting resistance to organophosphorus and carbamate-series insecticides. The experiment is described as follows: Biotest against Myzus persicae resistant to organophosphorus and carbamate-series insecticides, spray on eggplant seedlings. The note with it: in Solanum melongena, 24 h, read-out: insect mortality.
For `N#C/N=C1\COCCN1Cc1ccc(Cl)nc1` [Compound 2, 4-(2-chloro-5-pyridylmethyl)-3-cyanoiminomorpholine], the mortality at 500 ppm was 100%.

Turning to `N#C/N=C1\COCCN1Cc1cnc(Cl)s1` [Compound 3], the mortality at 500 ppm worked out at 100%.

In the case of `CN1CN/C(=N\[N+](=O)[O-])N(Cc2ccc(Cl)nc2)C1` [Compound 11, 1-(2-chloro-5-pyridylmethyl)-5-methyl-2-nitroimino-hexahydro-1,3,5-triazine], the mortality at 500 ppm was found to be 100%.

With `CN1CN/C(=N\[N+](=O)[O-])N(Cc2cnc(Cl)s2)C1` [Compound 12], the mortality at 500 ppm worked out at 100%.

Regarding `CON1CN/C(=N\[N+](=O)[O-])N(Cc2ccc(Cl)nc2)C1` [Compound 14, 1-(2-chloro-5-pyridylmethyl)-5-methoxy-2-nitroimino-hexahydro-1,3,5-triazine], the mortality at 500 ppm came to 100%.

Consider `CC(C)N1CN/C(=N\[N+](=O)[O-])N(Cc2ccc(Cl)nc2)C1` [Compound 15], for which the mortality at 500 ppm turned out to be 100%.

With `CC(C)N1CN(Cc2ccc(Cl)nc2)C(=N[N+](=O)[O-])N(Cc2ccc(Cl)nc2)C1` [Compound 16], the mortality at 500 ppm worked out at 100%.

As to `CN1CN/C(=N\C#N)N(Cc2ccc(Cl)nc2)C1` [Compound 17, 1-(2-chloro-5-pyridylmethyl)-5-neath-2-cyanoimino-hexahydro-1,3,5-triazine], the mortality at 500 ppm was 100%.

On to `CC(C)c1noc(C(C)N2CN(C)CN/C2=N\[N+](=O)[O-])n1` (stereo not drawn) [Compound 40], for which the mortality at 500 ppm amounted to 100%.

Values taken from patent US6344453B1, “Insecticidal heterocyclic compounds” (priority 1989, dated 2002).
